Data on 16 sequences can be found in the supplement of paper PMC10338343.

± gives the standard deviation. The list shows a part of the results, in another mix than the full data.
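Note: 1 nM active piRISC with 0.1 nM target library at 33 °C single turnover.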

The subject of the assay is MIWI (PIWIL1) piRISC loaded with piRNA #1 (30 nt). Put plainly: pre-steady-state target cleavage rate (min^-1); MIWI and MILI are mouse PIWI proteins and EfPiwi is from a freshwater sponge; tags in brackets are library labels; higher = faster piRNA-guided slicing of the target. The note with it: guide: piRNA #1 5'p-UGAGGUAGUAGGUUGUAUAGUAUCCAGAGG; auxiliary factor: 500 nM mouse GTSF1. The procedure, abridged:
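In HEPES–potassium acetate buffer at 33 °C, […] transcribed, DNA-blocked target RNA library was mixed with 1 nM active affinity-purified piRISC carrying one synthetic guide, with or without 500 nM GTSF1 partner protein, for 0–8 or 0–960 min. Uncleaved targets were sequenced and normalised to depth and to weakly complementary targets; three trials were pooled and k3 was capped at 0.0001 min^-1. The pre-steady-state cleavage rate followed from a burst-and-steady-state fit.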
On to “GGAGACCUAUGUAUACAACCUACUACCUCC [g2:g19:cont:t1C]”, for which the “pre-steady-state target cleavage rate” value was 0.0424 ± 0.0064.

Turning to CCUCUGGAUACUAUACAAACCUACUACCUCA, the “pre-steady-state target cleavage rate” value turned out to be 0.0394 ± 0.011.

With GGAGAGGAUUGAAUACAACCUACUACCUCA, the “pre-steady-state target cleavage rate” value turned out to be 0.144 ± 0.021. Take GGAGACGAUACAAUACAUCCUACUACCUCA: the “pre-steady-state target cleavage rate” value worked out at 0.972 ± 0.075. Turning to GCUCUGGAUACUUUACAACCAACUACCUCA, the “pre-steady-state target cleavage rate” value is 0.124 ± 0.015.

In the case of CCUCUGGAUACUAUACAUCGUACUACCUCA, the “pre-steady-state target cleavage rate” value stood at 0.521 ± 0.043. The figure for GGAGUGGAUACUUUAGAACCUACUACCUCA is 0.435 ± 0.038. Next, GGAGACCUAACUAUACAUCCUACUACGUCA: 0.338 ± 0.049. Next, GCUGUGGAUACUAUACAACCUACAACCUCA: 0.288 ± 0.045. Take GGACUGGAUACUAUACAACCUACAUACCUCA: the “pre-steady-state target cleavage rate” value came to 0.799 ± 0.079.

GGAGAGGUUACUAUACAACCUACUAGCUCA: the “pre-steady-state target cleavage rate” value was 0.00956 ± 0.0034. Next, GGAGUGGAUACUAUACAUGGUACUACCUCA: 0.0286 ± 0.0046; GGAGACGAUACUAAACAUCCUACUACCUCA: 1.08 ± 0.085. Regarding CCUCUGGAUACUCUACAACCUACUACCUCA, the “pre-steady-state target cleavage rate” value was 1.84 ± 0.099.

Turning to GGACUGGAUUCUAAACAACCUACUACCUCA, the “pre-steady-state target cleavage rate” value stood at 1.11 ± 0.095.

With GGUCAGGAUACUAUACAACCUACUACCACA, the “pre-steady-state target cleavage rate” value was determined as 1.33 ± 0.11.
